Experimental findings from patent EP4636087A1, “ANTI-GPA33 ANTIBODY AND UTILIZATION THEREOF” (Kagoshima University, priority 2022, dated 2024) are described below.

This assay relates to Wnt/β-catenin signal. Put plainly: Wnt/β-catenin reporter EC50 in 293STF cells expressing GPA33. Format: cell-based, human. The procedure:
The Wnt/β-catenin signal promoting activity of the anti-GPA33 antibody scFv-Rspo fragment fusion recombinant prepared in Example 18 was measured as follows. ONE-Glo™ + Tox Luciferase Reporter and Cell Viability Assay (Promega) was used for the measurement. […] The cells into which each vector was introduced were cultured for 2 days in DMEM medium containing 10% FBS (Nichirei), and then the cells were collected and seeded at 100 µL/well on a CulturPlate-96 (PerkinElmer). The next day, 100 µL of (1) control medium or (2) medium containing recombinant Rspo1FL-Fc or various anti-GPA33 antibody scFv-Rspo fragment fusion recombinant proteins prepared in Example 10 (10-fold serial dilution between 10000 and 0.001 ng/mL, final concentration 5000 to […]) was added to each well. […] The fluorescence value was measured using a Microplate Reader SH-9000 (CORONA). 100 µL of ONE-Glo (trademark) Reagent (Promega) was added to the plate and incubated at room temperature for 3 min, after which the luminescence value was measured using a NIVO microplate reader (PerkinElmer). […] Samples with low activity for which the EC50 value could not be determined were marked NC. […]
The Wnt/β-catenin signal promoting activity of the anti-GPA33 antibody scFv-Rspo fragment-Fc conjugate R1CRD-hFcm-tCAP-G17 prepared in Example 19 was measured as shown in Example 20. […]

B1: R1CRD-hFcm-tCAP-G9: conjugate of azidized R1CRD-Fcm and DBCO-G9 scFv by tCAP and click reaction (conjugate)
chain: SRGIKGKRQRRISAEGSQACAKGCELCSEVNGCLKCSPKLFILLERNDIRQVGVCLPSCPPGYFDARNPDMNKCIKCKIEHCEACFSHNFCTKCKEGLYLHKGRCYPACPEGSSAANGTMECSSPAEPKSADKTHTCPPCPAPEAEGAPSVFLFPPKPKDTLMISRTPEVTCVVVDVSHEDPEVKFNWYVDGVEVHNAKTKPREEQYNSTYRVVSVLTVLHQDWLNGKEYKCAVSNKALPASIEKTISKAKGQPREPQVYTLPPSREEMTKNQVSLTCLVKGFYPSDIAVEWESNGQPENNYKTTPPVLDSDGSFFLYSKLTVDKSRWQQGNVFSCSVMHEALHNHYTQKSLSLSPGK
scFv: QVQLVQSGGGLVKPGGSLRLSCAASGFTFSNYNMNWVRQAPGKGLEWVSSISSSGDFMYYADSVKGRFTISRDDAKNSLYLQMNSLRAEDTAVYYCAREGPGTPFDYWGQGTLVTVSSGGGGSGGGGSGSTGS[about 100 residues not written out]EPRTPRPCLVPRGSHHHHHHGA
In turn, B1 had an EC50 (293STF cells expressing GPA33, Afamin/Wnt3a 883 ng/mL, 18 hr) of 0.13 nM. Also, the “EC50(MOG)/ EC50(GPA33)” value (ratio, NC assumed >30 nM) is on record as greater than 230.1.

By EC50 is commonly meant the midpoint of the concentration-response curve. A lower EC50 goes with an effect from little substance.
